According to PubChem BioAssay AID488969 (Vanderbilt High Throughput Screening Facility, 2010):
Over roughly 110,000 compounds, “z-score” has its median near -0.1; the highest 2% begin near 2. The list shows a part of the results.

Each molecule was assayed against Metabotropic glutamate receptor 8 (Rattus norvegicus) (UniProt P70579) (assay: mGluR8 Gi/Go-coupled signaling modulation – cell-based, rat, thallium flux, HTS, primary screen (AID 488969)). Details: HEK293 rat mGluR8, GIRK (G protein-gated inwardly rectifying potassium channel) thallium flux, FluoZin2; at 10 µM; stronger effect = higher value; submaximal glutamate (EC20) added with thallium.
Sequence of UniProt P70579 (P70579 whole entry, looked up): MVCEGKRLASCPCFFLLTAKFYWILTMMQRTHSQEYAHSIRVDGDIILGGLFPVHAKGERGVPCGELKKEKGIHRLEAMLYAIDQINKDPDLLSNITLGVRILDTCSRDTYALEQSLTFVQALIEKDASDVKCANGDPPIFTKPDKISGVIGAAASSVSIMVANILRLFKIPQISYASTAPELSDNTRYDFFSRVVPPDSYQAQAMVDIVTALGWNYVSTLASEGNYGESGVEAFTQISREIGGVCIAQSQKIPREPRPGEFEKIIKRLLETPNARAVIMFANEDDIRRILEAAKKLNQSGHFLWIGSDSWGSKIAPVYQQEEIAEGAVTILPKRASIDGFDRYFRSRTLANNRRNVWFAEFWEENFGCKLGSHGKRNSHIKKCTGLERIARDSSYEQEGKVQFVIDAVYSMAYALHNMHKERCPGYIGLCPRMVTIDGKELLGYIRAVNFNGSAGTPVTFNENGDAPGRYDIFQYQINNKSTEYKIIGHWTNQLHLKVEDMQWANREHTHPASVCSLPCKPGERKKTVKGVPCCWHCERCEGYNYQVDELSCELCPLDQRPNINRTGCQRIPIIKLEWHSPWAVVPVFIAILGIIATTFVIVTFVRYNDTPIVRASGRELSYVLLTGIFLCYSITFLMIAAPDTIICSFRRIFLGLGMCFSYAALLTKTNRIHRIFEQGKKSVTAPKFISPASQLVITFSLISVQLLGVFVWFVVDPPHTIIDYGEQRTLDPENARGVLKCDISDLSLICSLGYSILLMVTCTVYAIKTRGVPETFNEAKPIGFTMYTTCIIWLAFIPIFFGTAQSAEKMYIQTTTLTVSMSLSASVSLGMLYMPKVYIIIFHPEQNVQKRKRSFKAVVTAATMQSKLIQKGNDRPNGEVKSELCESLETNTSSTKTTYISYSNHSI

| SMILES | z-score |
| --- | --- |
| COC(=O)CSc1ncc(OC)c(OC)n1 | 0.123 |
| COc1cc(-c2nnc(-c3cccs3)o2)cc(OC)c1OC | 2.27 |
| CC1=CC(C)(C)NC(=S)N1c1ccccc1 | -0.245 |
| CC(=O)C1=C(O)C(=O)N(CCc2c[nH]c3ccccc23)C1c1cccc(O)c1 (centres undefined) | -0.00532 |
| COc1cc(C)ccc1OCCCOc1c(Cl)cccc1Cl | -0.0753 |
| Cc1ccc(-n2c(COc3c(C)cccc3C)nnc2SCC(=O)Nc2nccs2)cc1 | -0.0629 |
| O=C(O)c1ccoc1CN1CCCCC1 | -0.206 |
| CCC/C(=N\NC(=O)c1csc(C)c1C)c1cccs1 | 0.475 |
| CCC(=O)c1coc2ccc(O)cc12 | 0.00564 |
| CCc1ccccc1NC(=O)c1cccc(NC(=O)/C=C/c2ccco2)c1 | -0.691 |
| CCCOc1ccc(C(=O)CCC(=O)OCC(=O)Nc2ccc(Oc3ccccc3)cc2)cc1 | -0.0976 |
| CC(C)(C)OC(=O)N1CCCC1C(=O)NCCc1ccccc1 (centres undefined) | 0.213 |
| Cc1cccc(C(=O)O/N=C2/CC3CCC2(C)C3(C)C)c1 (centres undefined) | 0.616 |
| CCOc1ccc(NC(=O)N2CCC(C(=O)c3ccc(F)cc3)CC2)cc1 | -0.802 |
| CCCCCCCCCCOC(=O)c1csc2nnsc12 | -0.158 |
| COC(=O)c1cccc(NC(=S)Nc2cccc(Cl)c2C)c1 | 0.445 |
| Cc1cc2oc(=O)cc(CSc3nc(N)cc(N)n3)c2cc1C(C)C | -0.862 |

| SMILES | z-score |
| --- | --- |
| CCCCCn1c(=O)c(Cc2ccccc2)c(O)c2ccccc21 | -0.687 |
| Cc1ccc(S(=O)(=O)NC(=O)Nc2nnc(C)s2)cc1 | -0.329 |
| O=C(COC(=O)c1ccc(Br)cc1)NCCc1ccccc1 | 0.111 |
| O=C(COC(=O)c1ccccc1OCc1ccc(Cl)cc1)NC1CC1 | -0.153 |
| O=C(O)c1ccc2c(c1)ncn2C1CCCCC1 | 0.0749 |
| Cc1ccc(NC(=O)c2nccnc2C(=O)O)cc1C | -0.208 |
| COc1ccc(/C=C(/C#N)C(=O)Nc2ccccc2C)cc1C(=O)O | 0.919 |
| CNC(=S)NNC(=O)c1sccc1C | -0.0354 |
| CCCCNC(=O)C(=O)N/N=C/c1cccc(Br)c1 | 0.475 |
| CC(=O)c1ccc(OCC(=O)c2cc(C)n(-c3ccc4c(c3)OCO4)c2C)cc1 | -0.81 |
| O=C(O)c1ccccc1OCCOc1ccccc1C(=O)O | -0.0901 |
| Cc1ccc(Nc2ccc(S(=O)(=O)N3CCOCC3)cc2[N+](=O)[O-])cc1C | -0.196 |
| CC(=O)OCCNC(=O)c1cc2ccccc2oc1=O | -0.258 |
| Cc1cccc(N2C(=S)N=C(Nc3c(C)cccc3C)C23CCOC(C)(C)C3)c1 (centres undefined) | -0.179 |
| Cc1cc(C)n(-c2nc(C)nc3c2cnn3-c2ccccc2)n1 | 0.697 |
| COc1ccc(CCNC(=O)COC(=O)c2ccc(Br)o2)cc1 | -0.0353 |
| O=C(CCSc1ccc(Cl)cc1)N1CCOCC1 | -0.207 |
